In PubChem BioAssay AID485313 (National Center for Advancing Translational Sciences (NCATS), 2010):
Screen size: about 320,000 compounds; about 7,600 (2.4%) were called active. This list was built around the results that the source calls inconclusive (neither active nor inactive); the mix of calls is not that of the screen. Calls come from the whole dose curve; as a rule, active = well fitted activation curve with a large enough effect; inconclusive = small, poorly fitted or top-dose-only effect; inactive = no such curve, though single readings can be large or run the other way. Potencies of inconclusive entries are doubtful fits and often do not repeat.

assay: qHTS Assay for NPC1 Promoter Activators; details: Huh7 NPC1 promoter luciferase reporter, 24 h; series mostly up to 9.22 µM; activation: at the top concentration; note: nearly all actives have a fitted effect of over 60% in size;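 for activation: reporter is driven by a mutant NPC1 promoter; % of control where 0% means no effect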
Method in brief: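 Stable NPC1-promoter luciferase Huh7 line; cpd (DMSO) 24 h, 37 °C, 5% CO2; Amplite luciferase reagent 10 min RT; luminescence readout. qHTS format.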
Potency is the fitted concentration of half-maximal effect; tags give direction and shape of the fitted curve.

Potency, active:
Cc1ccc(NC(=O)c2sc(N)nc2C)cc1 2.51 µM
O=C(NC1CCCCC1)C(=S)NC1CCCCC1 2.82 µM
CCOC(=O)c1cnc2c(-c3ccccc3)cnn2c1C 2.51 µM
Cc1nn(-c2ccc(Cl)cc2)c(=O)c2ccccc12 4.47 µM
CCOC(=O)Cc1csc(NC(=O)c2cc3c(s2)CCCC3)n1 1.41 µM
N/C(=N\OC(=O)c1ccc(Cl)cc1)c1ccn[nH]1 1.26 µM
O=C1c2ccccc2-c2nc3ccccc3nc21 2.82 µM
c1ccc(-c2ncc(-c3ccn[nH]3)s2)cc1 1.41 µM
CN(C)c1ccc(/C=N/NC(=O)c2ccccn2)cc1 0.501 µM
CC(C)CCSc1nc2ccccc2[nH]1 3.55 µM
O=C(NCCc1ccccc1)C1=COCCO1 2.51 µM
O=C(N/N=C/c1ccc(F)cc1)c1ccccc1 2.82 µM
Cc1ccc2nc(-c3ccc(SCC(=O)Nc4nc(C)cs4)nc3)[nH]c2c1 3.55 µM
Cc1ccccc1-c1noc(-c2ccc(Cl)cc2)n1 3.98 µM
CCn1cc(Br)c(C(=O)Nc2ccc(F)c(Cl)c2)n1 2.24 µM
Cc1cccc(/C=N/NC(=O)c2ccc3c(c2)OCCO3)c1O 0.891 µM
CC(C)n1cnc2cc(NCc3nc4ccccc4n3C)ccc21 1.26 µM
Clc1ccc(OCc2noc(-c3ccsc3)n2)c(Cl)c1 2 µM

Potency, inconclusive:
COc1cccc(OCc2cc(C(=O)NCc3ccc4c(c3)OCO4)no2)c1 5.62 µM [activator, single point]
COC(=O)c1ccc(C(=O)OC)c(NC(=O)Nc2ccc3c(c2)OCO3)c1 2.51 µM [activator, partial curve]
O=C(CN1CCCCC1)Nc1nc(-c2ccccc2)cs1 5.62 µM [activator, single point]
N#Cc1ccccc1NC(=O)c1ccc2c(Cl)c3c(nc2c1)CCCC3 3.98 µM [activator, single point]
N/C(=N\c1nc2ccccc2o1)NC(=O)c1ccccc1Br 2.82 µM [activator, partial curve]
COc1cccc(OCc2cc(C(=O)N3CCN(c4ccccc4OC)CC3)no2)c1 3.16 µM [activator, single point]
O=C1c2ccccc2-c2nnc(-c3ccc(F)cc3)cc21 0.398 µM [activator, full curve]
Cc1ccc(C)c(C(=O)CN2C(=O)c3ccccc3S2(=O)=O)c1 0.794 µM [activator, partial curve]
COc1ccc(Nc2oc(-c3cccs3)nc2C#N)cc1 3.55 µM [activator, partial curve]
COc1ccc(C(=O)N2C(=O)c3ccc(N)cc3C2=O)cc1 2 µM [activator, partial curve]
Cc1ccc2nc(NS(C)(=O)=O)sc2c1 3.16 µM [activator, single point]
Cc1ccc(NC(=O)c2cc(=O)c3ccccc3o2)cc1 3.16 µM [activator, single point]
N/C(=N\OC(=O)c1ccc2ccccc2c1)c1ccccn1 0.562 µM [activator, full curve]
O=[N+]([O-])c1ccccc1NCCOc1ccccc1 2.82 µM [activator, partial curve]
Cc1ccccc1C(=O)Nc1cccc(-c2ccc(N3CCOCC3)nn2)c1 3.98 µM [activator, single point]
O=C(CCN1C(=O)c2ccccc2C1=O)NCCC1=CCCCC1 3.98 µM [activator, single point]
COc1ccccc1NC(=O)COC(=O)c1c(C)nn(-c2ccccc2)c1C 3.16 µM [activator, partial curve]
CCC1CCCCN1C(=O)CCCc1ccccc1 (stereo unspecified) 3.98 µM [activator, partial curve]
Cc1cccc(N/N=C/c2ccncc2)c1 6.31 µM [activator, single point]
Cc1ccc(C(=O)OCC(=O)N2CCNC2=O)c(C)c1 2.51 µM [activator, partial curve]
COc1ccc(C(=O)Nc2cccc(C(=O)N3CCN(C)CC3)c2)cc1 3.55 µM [activator, partial curve]
O=c1oc2ccccc2cc1-c1cn(-c2ccccc2)c(=S)[nH]1 0.316 µM [activator, partial curve]
COc1ccc2nc(NC(=O)CSCC(=O)Nc3cc(C)on3)sc2c1 3.55 µM [activator, single point]
CC(C)NC(=O)c1[nH]nc2c1CCc1ccccc1-2 3.55 µM [activator, partial curve]
O=C(O)/C=C/c1cnn(-c2ccccc2)c1 0.447 µM [activator, partial curve]
COC(=O)Cc1ccc(NC(=S)N2CCCC(CO)C2)cc1 (stereo unspecified) 2.24 µM [activator, partial curve]
CN(c1ccccc1)S(=O)(=O)c1cccc(NC(=O)c2cc3ccccc3oc2=O)c1 1.26 µM [activator, partial curve]
CCOc1ccc(C(=O)Nc2nc(C)c(C(=O)OC)s2)cc1 1.12 µM [activator, full curve, poor fit]
CCOc1ccc(C(=O)c2ccc(OCC)c(N)c2)cc1N 3.98 µM [activator, partial curve]
O=C(CSc1cccs1)Nc1ccc(Cl)cc1 3.55 µM [activator, single point]
CCN1/C(=C\C=C2\C(=O)N(C)C(=S)N2C)Sc2ccccc21 3.55 µM [activator, single point]
O=C(NCc1cccs1)Nc1ccc(Cl)cc1 3.55 µM [activator, partial curve]
CC(C)c1ccc2oc(-c3ccc(NC(=O)c4ncn[nH]4)cc3)nc2c1 1.12 µM [activator, partial curve]
Cc1ccc(N=Cc2sc(O)c3ccccc23)c(C)c1 0.708 µM [activator, full curve]
COc1ccc(CCC(=O)N2CCc3ccccc32)cc1 5.62 µM [activator, single point]
Nc1ccc2c(c1)COc1ccccc1O2 2.51 µM [activator, partial curve]
CC(C)Oc1ccc(C(=O)Nc2ccc([N+](=O)[O-])cc2)cc1 1.26 µM [activator, full curve]
Cc1c(C(=O)NC2=NCCS2)oc2ccccc12 5.01 µM [activator, single point]
Cc1nn(CC(=O)c2ccccc2Cl)c(C)c1[N+](=O)[O-] 3.55 µM [activator, partial curve]
COCc1c(C(=O)N/N=C/c2ccc(C)o2)nnn1-c1nonc1N 5.62 µM [activator, single point]
Cc1cc(C(=O)COC(=O)c2ccccc2NCCO)c(C)n1CC1CCCO1 (stereo unspecified) 1.12 µM [activator, full curve]

activation, inactive:
Cc1nc(-c2cccnc2)sc1C(=O)N/N=C/c1ccccc1Cl -1.4%
N#Cc1c(N2CCCC(O)C2)nc(N)c2c(N)nc3c(c12)CC(=O)N3C12CC3CC(CC(C3)C1)C2 (stereo unspecified) -2.94%
Cc1cc(NC(=O)CC#N)n(-c2nc3ccccc3[nH]2)n1 5.19%
Cc1ccc(-c2nnc(SCC#CCOC(=O)c3ccco3)o2)cc1 5.3%
Cc1ccccc1NC(=O)Cn1nnc2ccccc21 6.92%
Cc1ccc2nc3c(cc2c1)c(NC(=O)C1CCCO1)nn3CC(C)C (stereo unspecified) -3.68%
CC(=O)Nc1ccccc1-c1nc2ccccc2nc1OCC(=O)c1ccc(Cl)cc1 -1.46%
Cc1noc(C)c1CSc1nc2sc3c(c2c(=O)n1C)CCCC3 -3.4%
CCOC(=O)C1CCN(C(=O)COc2ccc(N(C)S(=O)(=O)c3ccc(C)cc3)cc2)CC1 -3.08%
COc1ccc(/C=N/n2cnnc2SCc2ccc(OC)cc2)cc1 3.51%
O=C(CNCC1CCCO1)NCc1ccco1 (stereo unspecified) 0.0049%
C/C(=N\NC(=O)Cc1ccc(Cl)cc1)c1cccc(NC(=O)c2cccnc2)c1 0.949%
CCc1ccc(/C=N/NC(=O)c2cc(-c3cccc([N+](=O)[O-])c3)n[nH]2)cc1 -13.8%
COc1ccc(CCNC(=O)c2cc(-c3ccccn3)nc3ccccc23)cc1 -1.8%
CCn1nc(C(=O)NCc2nnc3ccccn23)c2ccccc2c1=O -6.17%
CC(C(=O)Nc1ccc(S(=O)(=O)N2CCCC2)cc1)N1CCCC(C(N)=O)C1 (stereo unspecified) -0.296%
C=CCOc1ccc(/C=C2\SC(=S)N(NS(=O)(=O)c3ccccc3)C2=O)cc1 -1.75%
CCc1ccccc1Nc1nc(N)nc(CSc2nnnn2C)n1 -1.42%
Cc1cc(NC(=S)N(CCCN2CCOCC2)Cc2ccco2)ccc1Cl 0.188%
CCc1ccc(/C=C2\SC(=S)N(CCC(=O)NCCCN3CCOCC3)C2=O)cc1 15.4%
Cc1ccccc1CCN(C(=O)c1csnn1)C(C(=O)NC1CCCC1)c1ccco1 (stereo unspecified) -0.102%
Cc1cc(Oc2ccccc2)nc(SCC(=O)Nc2ccc(Cl)c(Cl)c2)n1 1.1%
